# Test results published in PMC4336329 (PLoS ONE, 2015).
# About 2,200 (0.71%) of roughly 310,000 compounds showed an effect of 50% or more. The effect is printed as a negative number. The list shows a part of the results.
# Biological target: human ether-à-go-go-related gene (hERG) potassium channel (human, UniProt Q12809)
# Test: primary screen, population patch clamp on CHO cells stably expressing hERG
# human ether-à-go-go-related gene (hERG) potassium channel, sequence (Q12809 whole entry, looked up): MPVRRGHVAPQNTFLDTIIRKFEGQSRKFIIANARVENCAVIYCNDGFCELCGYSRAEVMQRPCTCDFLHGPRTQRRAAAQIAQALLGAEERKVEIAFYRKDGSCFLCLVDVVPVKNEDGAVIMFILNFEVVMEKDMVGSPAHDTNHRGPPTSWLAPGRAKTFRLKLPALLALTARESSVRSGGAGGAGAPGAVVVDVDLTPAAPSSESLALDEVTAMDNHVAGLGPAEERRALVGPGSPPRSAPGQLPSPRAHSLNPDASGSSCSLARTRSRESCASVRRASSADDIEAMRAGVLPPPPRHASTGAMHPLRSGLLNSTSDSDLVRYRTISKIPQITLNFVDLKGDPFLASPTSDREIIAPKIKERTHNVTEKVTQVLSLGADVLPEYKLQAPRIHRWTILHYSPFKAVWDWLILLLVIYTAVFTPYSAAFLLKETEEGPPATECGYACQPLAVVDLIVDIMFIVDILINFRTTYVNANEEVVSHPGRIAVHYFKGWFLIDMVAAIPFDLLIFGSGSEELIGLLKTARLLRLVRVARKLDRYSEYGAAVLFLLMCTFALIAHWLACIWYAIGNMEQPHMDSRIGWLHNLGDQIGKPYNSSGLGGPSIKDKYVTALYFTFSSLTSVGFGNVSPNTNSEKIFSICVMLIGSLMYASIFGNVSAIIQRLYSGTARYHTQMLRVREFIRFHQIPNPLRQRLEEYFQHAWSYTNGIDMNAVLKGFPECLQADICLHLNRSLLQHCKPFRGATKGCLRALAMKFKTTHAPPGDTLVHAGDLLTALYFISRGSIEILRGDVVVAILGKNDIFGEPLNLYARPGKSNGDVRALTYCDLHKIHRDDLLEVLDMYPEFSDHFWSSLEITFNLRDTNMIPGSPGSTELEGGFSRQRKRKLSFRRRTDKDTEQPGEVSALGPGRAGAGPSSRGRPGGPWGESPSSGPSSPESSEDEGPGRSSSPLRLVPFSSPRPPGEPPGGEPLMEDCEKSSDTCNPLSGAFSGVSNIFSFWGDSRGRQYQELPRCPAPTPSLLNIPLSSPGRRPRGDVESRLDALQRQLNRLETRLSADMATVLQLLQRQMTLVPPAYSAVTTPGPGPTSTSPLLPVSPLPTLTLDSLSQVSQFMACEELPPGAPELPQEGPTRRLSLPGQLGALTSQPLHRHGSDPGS
row,Compound,"hERG current change (%, negative = inhibition) at 1uM [%]"
1,CC1CC(C)CN(CC(=O)Nc2ccc(S(N)(=O)=O)cc2)C1 (stereo not shown),11.6
2,CC1c2c([nH]c3ccccc23)CCC1C(=O)O (stereo not shown),17.7
3,CCCCc1nnc(NC(=O)c2ccc(-n3cncn3)c([N+](=O)[O-])c2)s1,2.92
4,Cc1ccc(C23CC4CC(CC(C(=O)NC(C(=O)O)C(C)C)(C4)C2)C3)cc1 (stereo not shown),13.5
5,O=C(Nc1ccc(C(=O)O)cc1)/C(=C/c1cccc(Br)c1)NC(=O)c1ccco1,-1.32
6,O=S(=O)(c1ccc(F)cc1)N1CCN=C1SCc1cccnc1,3.86
7,C=CCn1c(-c2ccc(C)cc2)nc2ccccc21,-14.4
8,CCCN(CC(=O)Nc1ccccc1C)C(=O)CCNC(=O)c1ccccc1Cl,7.83
9,O=C(O)c1ccc(N/N=C/c2cccc3nccnc23)cc1,13.4
10,Cc1ccc(S(=O)(=O)NCCC(=O)N(C)Cc2cccs2)cc1,6.95
11,CCOC(=O)N1CCN(Cc2nc3cc(NC(=O)c4ccco4)ccc3n2C)CC1,6.57
12,COc1ccc(CCNCC2CCCO2)cc1.Cl (stereo not shown),12.6
13,COc1ccc(N2CCN(C(=S)Nc3cccc(C)c3)CC2)cc1,9.69
14,O=C(Nc1nnc(-c2cccnc2)o1)c1ccccc1Cl,15.4
15,CCn1c(/C=C/c2ccc(O)c(O)c2)nc2ccccc2c1=O,16
16,COC(=O)C(Cc1ccccc1)N1CCS(=O)(=O)CC1 (stereo not shown),18.6
17,N#Cc1ccc(S(=O)(=O)N2CCC(N3CCCCC3)CC2)cc1,-18.3
18,COCCNC(=O)c1cc(-c2ccncc2)nc2ccc(S(=O)(=O)N3CCOCC3)cc12,4.51
19,CCCCNc1nc(=S)n(-c2ccccc2)c(C)c1C(C)=O,9.18
20,CC1(C)OC(c2ccccc2)=C/C(=C/C=N/NC(=O)c2ccncc2)O1,4.58

row,Compound,"hERG current change (%, negative = inhibition) at 1uM [%]"
1,Nc1nnc(CC(=O)N/N=C/c2ccccc2OCc2ccc(F)cc2)s1,7.43
2,CC1=C(C(=O)Nc2ccccn2)C(c2cn(C)nc2C)C2=C(CCCC2=O)N1 (stereo not shown),1.74
3,CC(=O)Oc1cc(C(C)C)c(OCCN(C)C)cc1C.Cl,5.88
4,CC(C)(C)c1nnc(NC(=O)c2cccnc2)s1,14.9
5,CN1CCN(/N=C2/C(=O)Nc3ccc([N+](=O)[O-])cc32)CC1,6.39
6,O=CN(/C=C1\Sc2ccccc2C1=O)Cc1ccccc1,0.0966
7,O=C(c1ccccc1)N1CCN(CCc2ccccn2)CC1,16.3
8,Cc1cc(C)c2nc(N3CCC(C(=O)NCc4cccnc4)CC3)sc2c1,-50.6
9,CCNC(=S)Nc1cc(OCC)c(NC(=O)c2ccco2)cc1OCC,8.82
10,Nc1ncc(Br)cc1S(=O)(=O)NCCC(=O)NCCc1ccc(Cl)cc1,9.56
11,COC(=O)CCSCC(=O)Nc1cc(C)on1,-1.83
12,N#C/C(=C\Nc1ccc2cn[nH]c2c1)c1nc(-c2ccc(Cl)cc2)cs1,12.2
13,Cc1ccccc1NS(=O)(=O)c1cc(C(=O)NCCSC2CCCCC2)ccc1C,13.5
14,CCOc1ccccc1N1CC(C(=O)NNC(=O)c2cc(OC)c(OC)c(OC)c2)CC1=O (stereo not shown),4.35
15,Cc1nc(-c2ccccc2O)n(S(=O)(=O)N(C)C)n1,10.4
16,COc1ccc(S(=O)(=O)N2CCN(CCc3ccccc3)CC2)c(OC)c1,1.14
17,Cc1ccc(NC2=NCC(=O)N2C2CCCC2)c(C)c1.Cl,8.87
18,COc1ccc(OCc2nnc(SCC(=O)Nc3ccccc3Cl)o2)cc1,11.5
19,O=C(CCSc1nnc(-c2ccco2)o1)Nc1ccc(F)cc1,17.5
20,O=C(Cc1ccccc1)N/N=C/c1ccccc1OCc1ccc(Cl)cc1,19.4

row,Compound,"hERG current change (%, negative = inhibition) at 1uM [%]"
1,CCOC(=O)C1=C(COC(=O)/C=C/c2ccccc2Cl)NC(=O)NC1C (stereo not shown),11.1
2,CCOc1ccccc1CNC(=O)CCc1cn(CC)c2ccccc12,12.2
3,CC(C)C(NC(=O)c1ccco1)C(=O)NCc1ccc(C(=O)O)cc1 (stereo not shown),17
4,COc1cccc(CSc2nc3ccncc3[nH]2)c1,-1.89
5,O=C1C=C(NNC(=O)c2cccnc2)CC(c2ccco2)C1 (stereo not shown),8.64
6,CCc1ccc(NC(=O)CSc2nnc(CNC(=O)c3ccc(OC)cc3)o2)cc1,-3.85
7,Cc1cc(/C=C2\SC(=O)NC2=O)c(C)n1-c1ccc(N2CCOCC2)cc1,12.1
8,COc1cc(OC)cc(C(=O)NNC(=O)CNC(=O)c2ccc(Br)o2)c1,8.91
9,CCCCn1c(=O)c(C(=O)NCCc2ccccc2)c(O)c2ccccc21,26.9
10,Cc1oc(-c2ccccc2F)nc1CS(=O)(=O)CC(=O)NC(C)CCc1ccccc1 (stereo not shown),0.767
11,Cc1ccc(OCC(=O)OC(C)CN2CCCCC2)cc1.Cl (stereo not shown),12
12,COc1cc(C(=O)NCc2nnc(SCC(=O)N3CCCc4ccccc43)o2)cc(OC)c1OC,1.86
13,Cc1nc(Cc2nnc(SC(C)C(=O)Nc3cccc(C#N)c3)o2)cs1 (stereo not shown),18.8
14,Nc1nnnn1N=C1CCCCC1,-3.38
15,CCC(C)(C)n1nnnc1C(c1cc2cc3c(cc2[nH]c1=O)OCO3)N1CCCCC1 (stereo not shown),-13.2
16,COc1cc(CC(=O)NCCCc2ccccc2)cc(OC)c1OC,-22.4
17,Cc1ccc(NC(=O)Cc2ccc3c(c2)OCCO3)cc1S(=O)(=O)N1CCCCC1,19.9
18,Fc1ccccc1CN1CCC(Cc2ccccc2)CC1,8.72
